Assay results taken from publication PMC11995724, “Antibiotic target discovery by integrated phenotypic and activity-based profiling of electrophilic fragments” (Cell chemical biology, 2025).
The campaign covered roughly 3,200 compounds. About 75 (2%) showed an effect of 50% or more. This is one part of the list.

Each compound was assayed on T1, S. aureus MSSA476. Conditions: relative growth, OD600, TSB; 25 µM; inhibitor.
T1 construct: MSSA476
Parameters: species or system S. aureus MSSA476 (TSB) or V. cholerae SAD30 (LB); 384-well bacterial growth screen at 25 uM, OD600 relative to DMSO control
In the case of O=C(CCl)c1cn(-c2ccc(F)cc2)nn1 [10-F05], the “% of control remaining” value is reported as 0%. C=CC(=O)NCc1ccc(C(=O)N2CCNC(=O)CC2)cc1 [3-I04, N-{[4-(5-oxo-1,4-diazepane-1-carbonyl)phenyl]methyl}prop-2-enamide] was tested, and the “% of control remaining” value was 99.2599%. COc1ccc(NC(=O)C(C#N)=Cc2cccc(Cl)c2Cl)cc1 [8-N04, 2-cyano-3-(2,3-dichlorophenyl)-N-(4-methoxyphenyl)prop-2-enamide] was tested, and the “% of control remaining” value was 107.22%. In the case of Cc1cc(C)cc(OCCN(C)C(=O)CCl)c1 [6-F03, 2-chloro-N-[2-(3,5-dimethylphenoxy)ethyl]-N-methylacetamide], the “% of control remaining” value is reported as 81.2683%. In the case of O=C(CCl)Cc1ccc(C(F)(F)F)cc1 [10-C19, 1-chloro-3-[4-(trifluoromethyl)phenyl]propan-2-one], the “% of control remaining” value is reported as 133.125%. For C=CC(=O)N1CCN(c2nc(CC)ns2)CC1 [1-J20, 1-[4-(3-ethyl-1,2,4-thiadiazol-5-yl)piperazin-1-yl]prop-2-en-1-one], the “% of control remaining” value was 122.374%. For CC(=O)c1cccc(S(=O)(=O)N2CCN(C(=O)CCl)CC2)c1 [4-F05, 1-[4-(3-acetylbenzenesulfonyl)piperazin-1-yl]-2-chloroethan-1-one], the “% of control remaining” value was 105.574%. With N#CC(=Cc1cccs1)C(=O)Nc1ccc(C(=O)O)cc1 [8-A04, 4-[2-cyano-3-(thiophen-2-yl)prop-2-enamido]benzoic acid] the “% of control remaining” value was 109.212%. With Cc1ccc(CN(Cc2c(C)noc2C)C(=O)CCl)c(C)c1 [5-N03, 2-chloro-N-[(3,5-dimethyl-1,2-oxazol-4-yl)methyl]-N-[(2,4-dimethylphenyl)methyl]acetamide] the “% of control remaining” value was 78.3242%. With O=C(CCl)NCCOc1cccc(F)c1 [6-G03, 2-chloro-N-[2-(3-fluorophenoxy)ethyl]acetamide] the “% of control remaining” value was 89.8049%. In the case of COc1cccc(NC(=O)C(C#N)=Cc2csnn2)c1 [8-K04, 2-cyano-N-(3-methoxyphenyl)-3-(1,2,3-thiadiazol-4-yl)prop-2-enamide], the “% of control remaining” value is reported as 135.768%. In the case of O=C(CCl)NCC1CCCN(C(=O)C(F)(F)F)C1 (stereo not drawn) [7-N18, 2-chloro-N-{[1-(2,2,2-trifluoroacetyl)piperidin-3-yl]methyl}acetamide], the “% of control remaining” value is reported as 107.378%. C=CC(=O)NCCC(=O)N1CCN(c2nc(C)cs2)C(C)C1 (stereo not drawn) [2-F06, N-{3-[3-methyl-4-(4-methyl-1,3-thiazol-2-yl)piperazin-1-yl]-3-oxopropyl}prop-2-enamide] was tested, and the “% of control remaining” value was 102.35%. For C=CC(=O)N1CCC(C(=O)N[C@H]2CCOc3c(F)cccc32)CC1 [3-F12, N-[(4S)-8-fluoro-3,4-dihydro-2H-1-benzopyran-4-yl]-1-(prop-2-enoyl)piperidine-4-carboxamide], the “% of control remaining” value was 107.27%. In the case of C=CC(=O)NCc1cn(C)c2ccccc12 [1-G21, N-[(1-methyl-1H-indol-3-yl)methyl]prop-2-enamide], the “% of control remaining” value is reported as 106.549%. With CC(Cl)C(=O)Nc1ccc(NC(=O)c2cccs2)cc1 (stereo not drawn) [6-G07, N-[4-(2-chloropropanamido)phenyl]thiophene-2-carboxamide] the “% of control remaining” value was 112.683%. CCCCNC(=O)C(C#N)=Cc1ccncc1 [8-P17, N-butyl-2-cyano-3-(pyridin-4-yl)prop-2-enamide] was tested, and the “% of control remaining” value was 94.9378%. For Cc1ccc(C=C(C#N)C(=O)Nc2ccccc2C)cc1 [8-G16, 2-cyano-N-(2-methylphenyl)-3-(4-methylphenyl)prop-2-enamide], the “% of control remaining” value was 109.212%. For C=CC(=O)N1CCC(C(=O)N2Cc3ccc([N+](=O)[O-])cc3C2)CC1 [2-F04, 1-[4-(5-nitro-2,3-dihydro-1H-isoindole-2-carbonyl)piperidin-1-yl]prop-2-en-1-one], the “% of control remaining” value was 89.121%. With Cc1ccc(C2=NN(C(=O)CCl)C(c3cccs3)C2)cc1 (stereo not drawn) [4-O22, 2-chloro-1-[3-(4-methylphenyl)-5-(thiophen-2-yl)-4,5-dihydro-1H-pyrazol-1-yl]ethan-1-one] the “% of control remaining” value was 88.0419%. With O=C(CCl)NCCc1c(F)cccc1F [5-F20, 2-chloro-N-[2-(2,6-difluorophenyl)ethyl]acetamide] the “% of control remaining” value was 114.026%. For COC(=O)[C@H]1[C@@H](C(=O)CCl)C1(C)C (racemic) [10-A11, rac-methyl (1R,3S)-3-(2-chloroacetyl)-2,2-dimethylcyclopropane-1-carboxylate], the “% of control remaining” value was 136.875%. C=CC(=O)NCc1ccc(C(=O)N2CCC(c3nnc(C)o3)CC2)cc1 [2-M18, N-({4-[4-(5-methyl-1,3,4-oxadiazol-2-yl)piperidine-1-carbonyl]phenyl}methyl)prop-2-enamide] was tested, and the “% of control remaining” value was 99.913%. For CC(Cl)C(=O)N1CC(Oc2ccc(C#N)cc2)C1 (stereo not drawn) [6-J15, 4-{[1-(2-chloropropanoyl)azetidin-3-yl]oxy}benzonitrile], the “% of control remaining” value was 90.4878%. For Cc1cccc(C)c1NC(=O)CN(C)C(=O)CCl [5-A13, 2-chloro-N-{[(2,6-dimethylphenyl)carbamoyl]methyl}-N-methylacetamide], the “% of control remaining” value was 104.189%. Cc1ccc(C)c(CN(CCO)C(=O)CCl)c1 [5-K20, 2-chloro-N-[(2,5-dimethylphenyl)methyl]-N-(2-hydroxyethyl)acetamide] was tested, and the “% of control remaining” value was 91.439%. In the case of N#CC(=Cc1ccsc1)C(=O)NCc1ccc(Cl)cc1 [8-I15, N-[(4-chlorophenyl)methyl]-2-cyano-3-(thiophen-3-yl)prop-2-enamide], the “% of control remaining” value is reported as 119.834%. For N#CC(=Cc1cccc2ccccc12)C(=O)Nc1ccccc1Cl [8-K11, N-(2-chlorophenyl)-2-cyano-3-(naphthalen-1-yl)prop-2-enamide], the “% of control remaining” value was 96.5975%. Cc1cc(NC(=O)CCl)n(-c2ccccc2)n1 [4-G05, 2-chloro-N-(3-methyl-1-phenyl-1H-pyrazol-5-yl)acetamide] was tested, and the “% of control remaining” value was 95.6646%. With CN1C(=C(C#N)C(=O)CCl)Sc2ccccc21 [10-G08, 4-chloro-2-(3-methyl-2,3-dihydro-1,3-benzothiazol-2-ylidene)-3-oxobutanenitrile] the “% of control remaining” value was 117.188%. For O=C(CCl)Nc1ccc(C(=O)O)cc1[N+](=O)[O-] [4-C21, 4-(2-chloroacetamido)-3-nitrobenzoic acid], the “% of control remaining” value was 114.721%. For COCCNC(=O)C(C#N)=Cc1cccc2ccccc12 [8-L12, 2-cyano-N-(2-methoxyethyl)-3-(naphthalen-1-yl)prop-2-enamide], the “% of control remaining” value was 99.2531%. For C=CC(=O)N1CCOC(c2ccccc2)C1 (stereo not drawn) [2-I07, 1-(2-phenylmorpholin-4-yl)prop-2-en-1-one], the “% of control remaining” value was 102.002%. In the case of C=CC(=O)N1CC2(CCCC2)CC1CO (stereo not drawn) [2-I19, 1-[3-(hydroxymethyl)-2-azaspiro[4.4]nonan-2-yl]prop-2-en-1-one], the “% of control remaining” value is reported as 89.4691%. For O=C(CCl)N1CCCC1c1ccccc1 (stereo not drawn) [6-M19, 2-chloro-1-(2-phenylpyrrolidin-1-yl)ethan-1-one], the “% of control remaining” value was 103.463%. O=C(CCl)Nc1ccc(Cl)c(S(=O)(=O)N2CCOCC2)c1 [6-K13, 2-chloro-N-[4-chloro-3-(morpholine-4-sulfonyl)phenyl]acetamide] was tested, and the “% of control remaining” value was 104.146%. Cc1c(C#N)c(NC(=O)CCl)n(Cc2cccs2)c1C [4-C04, 2-chloro-N-{3-cyano-4,5-dimethyl-1-[(thiophen-2-yl)methyl]-1H-pyrrol-2-yl}acetamide] was tested, and the “% of control remaining” value was 108.623%. For O=C(CCl)N1N=C(c2ccccc2)CC1c1ccc2nccnc2c1 (stereo not drawn) [4-A22, 2-chloro-1-[3-phenyl-5-(quinoxalin-6-yl)-4,5-dihydro-1H-pyrazol-1-yl]ethan-1-one], the “% of control remaining” value was 113.959%. For C=CC(=O)NCCC(=O)N1CCC(O)(c2c(F)cccc2F)CC1 [2-B11, N-{3-[4-(2,6-difluorophenyl)-4-hydroxypiperidin-1-yl]-3-oxopropyl}prop-2-enamide], the “% of control remaining” value was 144.473%. For CCc1nc(C2CCCN2C(=O)CCl)no1 (stereo not drawn) [5-C08, 2-chloro-1-[2-(5-ethyl-1,2,4-oxadiazol-3-yl)pyrrolidin-1-yl]ethan-1-one], the “% of control remaining” value was 111.84%. With N#CC(=Cc1cn(-c2ccccc2)nc1-c1ccccc1Cl)C(N)=O [8-N18, 3-[3-(2-chlorophenyl)-1-phenyl-1H-pyrazol-4-yl]-2-cyanoprop-2-enamide] the “% of control remaining” value was 131.12%. For Cl.O=C(CCl)NCc1ccccc1CN1CCOCC1 [5-L06, 2-chloro-N-({2-[(morpholin-4-yl)methyl]phenyl}methyl)acetamide hydrochloride], the “% of control remaining” value was 105.282%. CCn1nc(C)c(CNC(=O)CCl)c1C [7-P10, 2-chloro-N-[(1-ethyl-3,5-dimethyl-1H-pyrazol-4-yl)methyl]acetamide] was tested, and the “% of control remaining” value was 96.3893%. With CC(Cl)C(=O)N1CC(n2cc(C(N)=O)nn2)C1 (stereo not drawn) [5-F21, 1-[1-(2-chloropropanoyl)azetidin-3-yl]-1H-1,2,3-triazole-4-carboxamide] the “% of control remaining” value was 106.011%. For CC(C)c1ccc(CCNC(=O)CCl)cc1 [6-I16, 2-chloro-N-{2-[4-(propan-2-yl)phenyl]ethyl}acetamide], the “% of control remaining” value was 115.756%.
